Reference: PMC12820563, “FoxP3 forms a head-to-head dimer in vivo and stabilizes its multimerization on adjacent microsatellites”
The other results are listed elsewhere or left out.

biological target: T1, MBP-FoxP1dN (Mus musculus, UniProt P58462 326-579); assay: PD-seq (MBP pull-down with sequencing); 20 mM Tris-HCl pH 7.5, 100 mM NaCl, 1.5 mM MgCl2, 0.4 uM protein, 0.1 uM dsDNA library, 30 min, room temperature, amylose pull-down; high values mean tight binding; settings: protein: recombinant; tags: His6-MBP; chain copies: 2; dsDNA, one strand shown
T1 sequence: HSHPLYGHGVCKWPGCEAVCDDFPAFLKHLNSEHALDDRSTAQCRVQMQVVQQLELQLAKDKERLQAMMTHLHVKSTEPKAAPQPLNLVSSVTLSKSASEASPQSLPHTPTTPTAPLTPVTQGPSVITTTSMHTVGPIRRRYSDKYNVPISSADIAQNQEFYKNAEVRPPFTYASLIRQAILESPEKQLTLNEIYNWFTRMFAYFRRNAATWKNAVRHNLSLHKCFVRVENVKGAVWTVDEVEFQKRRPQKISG
In short: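 Binding is given as reads-per-million enrichment, pull-down over input, with replicates pooled. The bait was an N-terminus-lacking mouse FoxP3 or FoxP1 fragment with a His6-MBP tag, expressed in E. coli and used at 0.4 µM with 0.1 µM Klenow-filled degenerate double-stranded DNA library for 30 min at room temperature in Tris pH 7.5 buffer with NaCl and MgCl2. Amylose resin pull-down with three washes was followed by proteinase K release, PCR barcoding and Illumina sequencing.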

In order of falling binding signal:
1. GATGATTGTTCTCCCAGCTGATGAATTTCTGTTTTCGAGTAAACAAATTTTCCTAATCTTTCTGTTCAAGCGCCATCTAC  2.32 RPM ratio (pull-down/input)
2. GATGATTGTTCTCCCAGCTGATGAATTCCTATTTTCGAGTAAACAAATTTTCCTAATCTTTCTGTTCAAGCGCCATCTAC  1.86 RPM ratio (pull-down/input)
3. GATGATTGTTCTCCCAGCTGATGAATTTGTTTGATCGAGTAAACAAATTTTCCTAATCTTTCTGTTCAAGCGCCATCTAC  1.47 RPM ratio (pull-down/input)
4. GATGATTGTTCTCCCAGCTGATGAATTATTTAGTTCGAGTAAACAAATTTTCCTAATCTTTCTGTTCAAGCGCCATCTAC  1.41 RPM ratio (pull-down/input)
5. GATGATTGTTCTCCCAGCTGATGAATTACAATTCTCGAGTAAACAAATTTTCCTAATCTTTCTGTTCAAGCGCCATCTAC  1.38 RPM ratio (pull-down/input)
6. GATGATTGTTCTCCCAGCTGATGAATTATTTTTCTCGAGTAAACAAATTTTCCTAATCTTTCTGTTCAAGCGCCATCTAC  1.34 RPM ratio (pull-down/input)
7. GATGATTGTTCTCCCAGCTGATGAATTACAATCTTCGAGTAAACAAATTTTCCTAATCTTTCTGTTCAAGCGCCATCTAC  1.33 RPM ratio (pull-down/input)
8. GATGATTGTTCTCCCAGCTGATGAATTTGTCTCATCGAGTAAACAAATTTTCCTAATCTTTCTGTTCAAGCGCCATCTAC  1.19 RPM ratio (pull-down/input)
9. GATGATTGTTCTCCCAGCTGATGAATTACATGTGTCGAGTAAACAAATTTTCCTAATCTTTCTGTTCAAGCGCCATCTAC  1.16 RPM ratio (pull-down/input)
10. GATGATTGTTCTCCCAGCTGATGAATTAACGTCATCGAGTAAACAAATTTTCCTAATCTTTCTGTTCAAGCGCCATCTAC  1.15 RPM ratio (pull-down/input)
11. GATGATTGTTCTCCCAGCTGATGAATTCTCAATATCGAGTAAACAAATTTTCCTAATCTTTCTGTTCAAGCGCCATCTAC  1.11 RPM ratio (pull-down/input)
12. GATGATTGTTCTCCCAGCTGATGAATTAGGAGCATCGAGTAAACAAATTTTCCTAATCTTTCTGTTCAAGCGCCATCTAC  1.07 RPM ratio (pull-down/input)
13. GATGATTGTTCTCCCAGCTGATGAATTGGAAAAATCGAGTAAACAAATTTTCCTAATCTTTCTGTTCAAGCGCCATCTAC  1.01 RPM ratio (pull-down/input)
14. GATGATTGTTCTCCCAGCTGATGAATTTCAATTATCGAGTAAACAAATTTTCCTAATCTTTCTGTTCAAGCGCCATCTAC  1.01 RPM ratio (pull-down/input)
15. GATGATTGTTCTCCCAGCTGATGAATTCTGCGTATCGAGTAAACAAATTTTCCTAATCTTTCTGTTCAAGCGCCATCTAC  0.998 RPM ratio (pull-down/input)
16. GATGATTGTTCTCCCAGCTGATGAATTAATCATGTCGAGTAAACAAATTTTCCTAATCTTTCTGTTCAAGCGCCATCTAC  0.997 RPM ratio (pull-down/input)
17. GATGATTGTTCTCCCAGCTGATGAATTAAGCGTTTCGAGTAAACAAATTTTCCTAATCTTTCTGTTCAAGCGCCATCTAC  0.989 RPM ratio (pull-down/input)
18. GATGATTGTTCTCCCAGCTGATGAATTGTCGACGTCGAGTAAACAAATTTTCCTAATCTTTCTGTTCAAGCGCCATCTAC  0.98 RPM ratio (pull-down/input)
19. GATGATTGTTCTCCCAGCTGATGAATTTTGTCTCTCGAGTAAACAAATTTTCCTAATCTTTCTGTTCAAGCGCCATCTAC  0.968 RPM ratio (pull-down/input)
20. GATGATTGTTCTCCCAGCTGATGAATTGCCGTTCTCGAGTAAACAAATTTTCCTAATCTTTCTGTTCAAGCGCCATCTAC  0.957 RPM ratio (pull-down/input)
21. GATGATTGTTCTCCCAGCTGATGAATTCGATAATTCGAGTAAACAAATTTTCCTAATCTTTCTGTTCAAGCGCCATCTAC  0.953 RPM ratio (pull-down/input)
22. GATGATTGTTCTCCCAGCTGATGAATTCAGTTGGTCGAGTAAACAAATTTTCCTAATCTTTCTGTTCAAGCGCCATCTAC  0.951 RPM ratio (pull-down/input)
23. GATGATTGTTCTCCCAGCTGATGAATTGTAAAAGTCGAGTAAACAAATTTTCCTAATCTTTCTGTTCAAGCGCCATCTAC  0.943 RPM ratio (pull-down/input)
24. GATGATTGTTCTCCCAGCTGATGAATTCGCGCGCTCGAGTAAACAAATTTTCCTAATCTTTCTGTTCAAGCGCCATCTAC  0.909 RPM ratio (pull-down/input)
25. GATGATTGTTCTCCCAGCTGATGAATTCACAGCGTCGAGTAAACAAATTTTCCTAATCTTTCTGTTCAAGCGCCATCTAC  0.894 RPM ratio (pull-down/input)
26. GATGATTGTTCTCCCAGCTGATGAATTTAAGGTGTCGAGTAAACAAATTTTCCTAATCTTTCTGTTCAAGCGCCATCTAC  0.883 RPM ratio (pull-down/input)
27. GATGATTGTTCTCCCAGCTGATGAATTCCGGGCGTCGAGTAAACAAATTTTCCTAATCTTTCTGTTCAAGCGCCATCTAC  0.856 RPM ratio (pull-down/input)
28. GATGATTGTTCTCCCAGCTGATGAATTCTGCCATTCGAGTAAACAAATTTTCCTAATCTTTCTGTTCAAGCGCCATCTAC  0.854 RPM ratio (pull-down/input)
29. GATGATTGTTCTCCCAGCTGATGAATTCAAGGGATCGAGTAAACAAATTTTCCTAATCTTTCTGTTCAAGCGCCATCTAC  0.837 RPM ratio (pull-down/input)
30. GATGATTGTTCTCCCAGCTGATGAATTCGTTGAGTCGAGTAAACAAATTTTCCTAATCTTTCTGTTCAAGCGCCATCTAC  0.83 RPM ratio (pull-down/input)
31. GATGATTGTTCTCCCAGCTGATGAATTGGACAGATCGAGTAAACAAATTTTCCTAATCTTTCTGTTCAAGCGCCATCTAC  0.82 RPM ratio (pull-down/input)
32. GATGATTGTTCTCCCAGCTGATGAATTCGGACGATCGAGTAAACAAATTTTCCTAATCTTTCTGTTCAAGCGCCATCTAC  0.816 RPM ratio (pull-down/input)
33. GATGATTGTTCTCCCAGCTGATGAATTCGGGAGTTCGAGTAAACAAATTTTCCTAATCTTTCTGTTCAAGCGCCATCTAC  0.811 RPM ratio (pull-down/input)
34. GATGATTGTTCTCCCAGCTGATGAATTCCAAAGTTCGAGTAAACAAATTTTCCTAATCTTTCTGTTCAAGCGCCATCTAC  0.81 RPM ratio (pull-down/input)
35. GATGATTGTTCTCCCAGCTGATGAATTCTACCTGTCGAGTAAACAAATTTTCCTAATCTTTCTGTTCAAGCGCCATCTAC  0.805 RPM ratio (pull-down/input)
36. GATGATTGTTCTCCCAGCTGATGAATTCTGGTCGTCGAGTAAACAAATTTTCCTAATCTTTCTGTTCAAGCGCCATCTAC  0.791 RPM ratio (pull-down/input)
37. GATGATTGTTCTCCCAGCTGATGAATTAGATCGGTCGAGTAAACAAATTTTCCTAATCTTTCTGTTCAAGCGCCATCTAC  0.789 RPM ratio (pull-down/input)
38. GATGATTGTTCTCCCAGCTGATGAATTTCCTGACTCGAGTAAACAAATTTTCCTAATCTTTCTGTTCAAGCGCCATCTAC  0.753 RPM ratio (pull-down/input)
39. GATGATTGTTCTCCCAGCTGATGAATTGAAGACCTCGAGTAAACAAATTTTCCTAATCTTTCTGTTCAAGCGCCATCTAC  0.728 RPM ratio (pull-down/input)
40. GATGATTGTTCTCCCAGCTGATGAATTCCCGGGCTCGAGTAAACAAATTTTCCTAATCTTTCTGTTCAAGCGCCATCTAC  0.662 RPM ratio (pull-down/input)
